Test results reported in the RNAGym collection of RNA variant scans (doi:10.7554/elife.90254).
Read counts are not given, so values of variants with three or more changes are uncertain.

B1: LINE1-mini (parent)
chain: GGCAGAGCUCAACACAGCGUGGCAAAGUGGCUGUGGCUAGACUGCC

Variants of: B1
Experiment: self-cleavage, relative activity (ratio to wild type); higher = more cleavage; in vitro, sequencing; the parent is a self-cleaving ribozyme

| Variant | self-cleavage |
| --- | --- |
| A6G A11U U43G | 0 |
| A6G C10A A11G G17C G19A A39C C46G | 0.01 |
| A6G C13A U38G | 0.02 |
| A6G A11C G29C | 0.02 |
| A6C C18U G22U G40C C45G | 0.03 |
| G5U G27U A39U | 0.05 |
| A6C C10A C23U G30U G44A | 0.02 |
| A6G C13A G17A | 0.03 |
| A6G A12C A16C C37A | 0.01 |
| A6C C15U C45A | 0.06 |
| A6C A26C U38A C45A | 0.84 |
| A6C A26G U34C G40C | 0 |
| A6C G21U A26U G36A C46U | 0 |
| G5U G21U U28A C37U | 0.03 |
| A6C G7C U9G U38G | 0 |
| A6C G17A G21U U28C U34C G36A U38G A39C | 0 |
| A6G A14U G19C C37A | 0 |
| A6C G33U U34A G40U | 0.02 |
| A6C U32A U34C U38G | 0.05 |
| A6C U9A G22C | 0.18 |
| A6G A14G A26U | 0.08 |
| A6G C8A U9A G35A | 0.36 |
| A6C G22U C23A G44C | 0.06 |
| A6C C10U C13U C45U C46A | 0.03 |

| Variant | self-cleavage |
| --- | --- |
| G5U G27A C37U | 0.04 |
| A6G C8U C42A | 0.07 |
| G5U G27U U28C | 0.02 |
| A6G C18A G35C | 0.06 |
| A6G A14C C42U G44C | 0.03 |
| A6C G30C U34G G36U | 0.04 |
| A6G C8A C13U C37A A39U C46U | 0.07 |
| A6C G7U A25C C45U | 0.01 |
| A6C C10U C23A G40U C45A | 0.01 |
| A6C U20G A26C | 0.62 |
| A6G A16U G17C A26G C45U | 0.07 |
| A6G A16G G21C | 0.03 |
| A6G C13G U32G G33U | 0.02 |
| A6C C10A A14U G17C G22A A24C | 0.02 |
| G5U G22A U32G A41G | 0.02 |
| A6C U9G A25C C31G | 0.02 |
| A6G C10A A12U A14U U38A A41C | 0.01 |
| A6C G17A U34C G36C U43A | 0.02 |
| A6C A12U A16U | 0.02 |
| A6C A11G U20G | 0.01 |
| A6C G17A C23U U28A G30U A39U | 0.32 |
| A6C A25G G27U | 0.18 |
| A6G A11U U32G | 0.03 |
| A6G A12U G36A G40U | 0.03 |

| Variant | self-cleavage |
| --- | --- |
| A6C G30C U34C C46G | 0.11 |
| A6C U38A C42A | 0.07 |
| A6C G29A C31A | 0.03 |
| A6G C10A A12U | 0.03 |
| A6C C31G G33A G36C | 0.07 |
| G5U G22A C45A | 0.04 |
| A6C C8A C13U | 0.1 |
| A6C A16U C18A U34C C37G | 0.06 |
| A6C C10U G40U C46A | 0.03 |
| A6C C10U U32G G36U | 0.03 |
| G5U G27U G36U | 0.05 |
| A6C C13U A26G U43C C45G | 0.09 |
| A6G A14U U28G | 0.01 |
| A6C C10A G17U G19C A41U U43G | 0.18 |
| G5U G22U A26U U32A | 0.01 |
| A6C A16G G17U G27A G29A U32A G36A | 0.18 |
| A6G C13A A41C | 0 |
| A6C C13U G29U G33A | 0.11 |
| A6G A16G U38G C46U | 0 |
| G5U G36U C45A | 0.14 |
| A6C C8U G19C | 0.12 |
| A6C G7C G29A | 0.1 |
| A6G A14G U28G G36U | 0.01 |
| A6G C18A C31U | 0 |

| Variant | self-cleavage |
| --- | --- |
| A6C A25C G35C G40A | 0.09 |
| A6C C31U C37G | 0.05 |
| A6C C31U C37A | 0.05 |
| A6G C15G G17U C18A U43A | 0.01 |
| A6C G7C G19A | 0.09 |
| A6G C15U A24U | 0.09 |
| G5U U9A G22A | 0.08 |
| A6C U9A A24G C46U | 0.17 |
| A6C A11U A12U C31A G44C | 0 |
| A6C G36U A39G C46U | 0.03 |
| A6C G7C C18A C46A | 0.07 |
| G5U G21U U43G | 0.05 |
| A6G A12U G19C | 0.04 |
| G5U U9G G27A | 0.08 |
| A6G C10U U28G C37U | 0.02 |
| A6G A14U U20G A41C | 0.06 |
| A6C U20A U32A | 0.1 |
| A6G C15A G30A C37U | 0.13 |
| A6C G19C A25C U32G G40A | 0.09 |
| A6G C8A U38C C46U | 0.18 |
| A6C A12C G22C C37G C46A | 0 |
| G5U G29C G30C G33U | 0.02 |
| A6C A12C U32G | 0 |
| A6G C10A G30C | 0.01 |

| Variant | self-cleavage |
| --- | --- |
| G5U U34G G40U | 0 |
| G5U U9G A25U G29C | 0.02 |
| A6C A16U G33C G36U | 0.03 |
| A6C G21A C37G A39G A41G | 0.01 |
| A6G C8A C42G C46A | 0.08 |
| A6C C31G U34C | 0.06 |
| A6G A12C G22U G40C | 0.01 |
| A6C G19U C42A | 0.06 |
| A6G C8G C18A G22C G30A | 0.04 |
| A6G C8G A39U | 0.01 |
| A6C C8A U20C U38G | 0.08 |
| G5U G29C C31U A41C | 0.03 |
| A6G C10A C18G G22U G27A G36U G44C | 0.04 |
| A6G A25U U28G | 0.05 |
| A6C G7A A16C | 0.07 |
| A6C G17A A25C C45U | 0.08 |
| A6C U28G G33U C37A | 0.04 |
| G5U U9A C45G | 0.04 |
| A6G A24G G35U | 0.01 |
| A6C C15A G21U C46G | 0.03 |
| G5U G33C C37U | 0.02 |
| A6C U9C A26G G35A | 0.06 |
| A6C C8G A12U A39G | 0.07 |
| A6G A14G G21U A26U G29U G30A A41C | 0.17 |

| Variant | self-cleavage |
| --- | --- |
| A6C U9A G27A C37A | 0.13 |
| A6G C13A C23G A25C U34C C37G | 0.04 |
| G5U U9G C10A G17A G30A U32A G33C A41C | 0.01 |
| A6G C10U C13U U20A G21U U38C | 0.01 |
| A6C A14U G17C G27C U28G G35C C45G | 0.12 |
| A6C A25G U38A | 0.21 |
| A6G C10A G27A U28C U38C A39C | 0 |
| A6G C8U A11U G40U | 0.01 |
| G5U U9G U38C | 0.12 |
| A6G A26G G36C | 0.02 |
| A6C G29U G44U C45G | 0.21 |
| A6G C8U U20A G40C | 0.07 |
| A6C C15G C42U | 0.01 |
| G5U U20G G29A G40U | 0.13 |
| A6C A14C G19C | 0.01 |
| A6C C10U C46A | 0.07 |
| A6C C8A C18G G21A G35A | 0.04 |
| A6G A12G G27U G35U C42A U43A | 0.01 |
| G5U G29U A39C | 0.04 |
| G5U U20A G33A U38C | 0.03 |
| A6G C8U C10A C15G G36A C46A | 0.02 |
| A6C G27C G29U | 0.15 |
| A6C A25C A26C | 0.05 |
| A6C A11C A16U G36A C37G | 0 |

| Variant | self-cleavage |
| --- | --- |
| A6G C15U U38A G40C A41C | 0.12 |
| G5U G35C A41C | 0.13 |
| A6C G29U G35A U38C | 0.07 |
| A6G A14G U20A U32C A39U | 0.17 |
| A6C C8A G17C G21U | 0.02 |
| A6G C8A G27A G29U C42U | 0.07 |
| G5U U38A A39G | 0.03 |
| G5U U9G C18U | 0.04 |
| A6G C10G U20C | 0.01 |
| A6G A26C C37A | 0.01 |
| G5U U20G G22U C46G | 0.01 |
| A6C C8G U9A A14G G44U | 0.03 |
| A6C U32A U38A | 0.05 |
| G5U U28G A39C C46A | 0.8 |
| A6G C10A A25U G35A | 0.02 |
| A6G C10A C13A U32A | 0.02 |
| A6G C10U G17U G19C U20G | 0.02 |
| A6C G7A C18G U20C G35U U43C | 0.26 |
| A6C C18A G19A U20A G30U | 0.45 |
| A6G C8A G36U | 0.08 |
| A6C G7A G40A | 0.08 |
| A6C G7A G40U | 0.36 |
| G5U U9G C45G | 0.12 |
